Measured values taken from publication doi:10.1101/2025.03.18.643855.
No constants are given. Whether binding was seen depends on the method and setting. Binding seen in cells or lysates may run through a third protein. Some results given as binding are weak or reduced against the parent protein; the word gives no strength.

Protein sequences, listed by entry. Tags and fused reporters are not part of them.
UniProt Q12888: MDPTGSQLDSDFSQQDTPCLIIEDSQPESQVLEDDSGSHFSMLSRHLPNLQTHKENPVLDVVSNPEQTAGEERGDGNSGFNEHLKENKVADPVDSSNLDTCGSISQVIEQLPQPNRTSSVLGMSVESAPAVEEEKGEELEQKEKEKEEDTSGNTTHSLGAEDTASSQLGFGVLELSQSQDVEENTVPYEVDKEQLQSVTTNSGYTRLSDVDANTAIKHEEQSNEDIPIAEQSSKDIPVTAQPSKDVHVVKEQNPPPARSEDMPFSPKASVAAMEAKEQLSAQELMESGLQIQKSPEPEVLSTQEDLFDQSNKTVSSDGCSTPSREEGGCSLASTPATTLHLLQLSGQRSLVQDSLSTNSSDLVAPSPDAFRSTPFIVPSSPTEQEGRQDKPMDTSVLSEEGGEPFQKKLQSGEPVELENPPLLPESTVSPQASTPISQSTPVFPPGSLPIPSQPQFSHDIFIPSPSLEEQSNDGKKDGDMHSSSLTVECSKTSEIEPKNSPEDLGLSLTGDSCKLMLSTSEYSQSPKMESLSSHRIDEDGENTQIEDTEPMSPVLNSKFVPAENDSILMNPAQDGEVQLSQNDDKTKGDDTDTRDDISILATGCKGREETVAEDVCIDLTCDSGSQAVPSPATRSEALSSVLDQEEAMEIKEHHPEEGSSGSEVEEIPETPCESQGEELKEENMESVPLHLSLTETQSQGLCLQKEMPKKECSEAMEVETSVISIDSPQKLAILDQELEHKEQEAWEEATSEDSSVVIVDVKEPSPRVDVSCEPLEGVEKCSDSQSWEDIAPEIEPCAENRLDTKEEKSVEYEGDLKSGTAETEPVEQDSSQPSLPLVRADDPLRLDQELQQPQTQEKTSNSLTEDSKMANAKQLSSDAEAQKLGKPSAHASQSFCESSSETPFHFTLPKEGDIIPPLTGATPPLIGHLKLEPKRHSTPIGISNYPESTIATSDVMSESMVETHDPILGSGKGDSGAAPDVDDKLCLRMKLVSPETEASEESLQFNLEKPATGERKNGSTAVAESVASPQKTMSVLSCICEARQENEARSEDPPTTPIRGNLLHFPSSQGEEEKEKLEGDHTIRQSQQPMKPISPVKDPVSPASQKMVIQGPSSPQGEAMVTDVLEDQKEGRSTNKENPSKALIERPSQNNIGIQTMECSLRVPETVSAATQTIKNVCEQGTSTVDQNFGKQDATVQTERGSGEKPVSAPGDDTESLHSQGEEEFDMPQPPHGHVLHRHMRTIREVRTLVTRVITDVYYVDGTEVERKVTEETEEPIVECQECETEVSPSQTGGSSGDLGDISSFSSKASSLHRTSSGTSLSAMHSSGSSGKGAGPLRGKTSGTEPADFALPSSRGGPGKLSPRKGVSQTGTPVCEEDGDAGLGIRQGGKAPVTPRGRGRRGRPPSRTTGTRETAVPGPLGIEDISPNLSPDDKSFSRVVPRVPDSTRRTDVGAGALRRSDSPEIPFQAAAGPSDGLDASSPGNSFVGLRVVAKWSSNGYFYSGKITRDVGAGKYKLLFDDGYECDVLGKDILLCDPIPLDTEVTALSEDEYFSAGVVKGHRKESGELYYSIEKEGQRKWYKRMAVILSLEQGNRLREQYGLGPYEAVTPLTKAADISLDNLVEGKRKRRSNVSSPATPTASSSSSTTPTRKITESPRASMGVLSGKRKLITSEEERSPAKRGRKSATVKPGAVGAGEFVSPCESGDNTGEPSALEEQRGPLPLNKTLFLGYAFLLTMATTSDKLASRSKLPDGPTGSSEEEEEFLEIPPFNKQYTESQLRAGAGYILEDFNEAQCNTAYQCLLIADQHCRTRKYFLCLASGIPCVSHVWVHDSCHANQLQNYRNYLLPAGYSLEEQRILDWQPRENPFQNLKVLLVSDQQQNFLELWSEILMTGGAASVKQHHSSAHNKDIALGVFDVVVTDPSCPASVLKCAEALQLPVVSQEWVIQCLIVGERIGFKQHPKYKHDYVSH

Target: FLAG-53BP1 WT (human) (UniProt Q12888)
Test: co-IP; FLAG-53BP1 WT, ΔMFF or IEDI_AAAA transfected in HEK293T, MLN4924 3 h; immunoprecipitation and blot for GMCL1

B1: endogenous GMCL1, HEK293T (protein, UniProt Q96IK5 1-515)
chain: MGSLSSRVLRQPRPALAQQAQGARAGGSARRPDTGDDAAGHGFCYCAGSHKRKRSSGSFCYCHPDSETDEDEEEGDEQQRLLNTPRRKKLKSTSKYIYQTLFLNGENSDIKICALGEEWSLHKIYLCQSGYFSSMFSGSWKESSMNIIELEIPDQNIDVEALQVAFGSLYRDDVLIKPSRVVAILAAACLLQLDGLIQQCGETMKETVNVKTVCGYYTSAGTYGLDSVKKKCLEWLLNNLMTHQNVELFKELSINVMKQLIGSSNLFVMQVEMDIYTALKKWMFLQLVPSWNGSLKQLLTETDVWFSKQRKDFEGMAFLETEQGKPFVSVFRHLRLQYIISDLASARIIEQDAVVPSEWLSSVYKQQWFAMLRAEQDSEVGPQEINKEELEGNSMRCGRKLAKDGEYCWRWTGFNFGFDLLVTYTNRYIIFKRNTLNQPCSGSVSLQPRRSIAFRLRLASFDSSGKLICSRTTGYQILTLEKDQEQVVMNLDSRLLIFPLYICCNFLYISPEKKN
Q: With B1 as the binder, how does the binding read?
A: binds
